Laboratory results reported in the supplement of paper PMC6089552.
Hit rate of the full screen: of about 3,200 compounds, about 300 (9.4%) showed activity. Only a part is listed here, and it is no random draw.

Test system: A673/TR/shEF
Assay: cell viability (LOESS-normalised, relative to median of negative controls) (log2 ratio); higher = more viable cells (less compound effect), active = hit call of the paper (over 3 MAD below the median)
Conditions: treatment time: 72 h
How it was run: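 Viability of A673/TR/shEF Ewing sarcoma cells was determined by CellTiter-Glo luminescence. The cells, at 1,500 per well in 384-well plates, were grown with or without doxycycline from 24 h before compound addition to switch on EWS-FLI1 shRNA knockdown, then exposed for three days to library compounds at two or more concentrations or to DMSO controls. Signals were LOESS-corrected plate by plate, normalised to the negative-control median and log2-transformed.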

[1] = 0.25 µM, library screen: screen1, EWS-FLI1 expression: high (no doxycycline)
[2] = 0.25 µM, library screen: screen1, EWS-FLI1 expression: low (doxycycline-induced shRNA knockdown)
[3] = 2.5 µM, library screen: screen1, EWS-FLI1 expression: high (no doxycycline)
[4] = 2.5 µM, library screen: screen1, EWS-FLI1 expression: low (doxycycline-induced shRNA knockdown)
[5] = 0.025 µM, library screen: screen2, EWS-FLI1 expression: high (no doxycycline)
[6] = 0.025 µM, library screen: screen2, EWS-FLI1 expression: low (doxycycline-induced shRNA knockdown)
[7] = 0.25 µM, library screen: screen2, EWS-FLI1 expression: high (no doxycycline)
[8] = 0.25 µM, library screen: screen2, EWS-FLI1 expression: low (doxycycline-induced shRNA knockdown)
[9] = 2.5 µM, library screen: screen2, EWS-FLI1 expression: high (no doxycycline)
[10] = 2.5 µM, library screen: screen2, EWS-FLI1 expression: low (doxycycline-induced shRNA knockdown)
[11] = 25 µM, library screen: screen2, EWS-FLI1 expression: high (no doxycycline)
[12] = 25 µM, library screen: screen2, EWS-FLI1 expression: low (doxycycline-induced shRNA knockdown)

Measured: cell viability (log2)

CCC(=O)O[C@H]1CC[C@H]2[C@@H]3CCC4=CC(=O)CC[C@]4(C)[C@H]3CC[C@]12C
inactive: 0.103 µM, library screen: screen3, EWS-FLI1 expression: high (no doxycycline) 0.0398 | 0.103 µM, library screen: screen3, EWS-FLI1 expression: low (doxycycline-induced shRNA knockdown) 0.0836 | [1] 0.118 | [2] -0.0311 | 0.308 µM, library screen: screen3, EWS-FLI1 expression: high (no doxycycline) 0.0165 | 0.308 µM, library screen: screen3, EWS-FLI1 expression: low (doxycycline-induced shRNA knockdown) 0.0285 | 0.926 µM, library screen: screen3, EWS-FLI1 expression: high (no doxycycline) 0.0471 | 0.926 µM, library screen: screen3, EWS-FLI1 expression: low (doxycycline-induced shRNA knockdown) 0.0358 | [3] 0.154 | [4] 0.132 | 2.8 µM, library screen: screen3, EWS-FLI1 expression: high (no doxycycline) -0.0169 | 2.8 µM, library screen: screen3, EWS-FLI1 expression: low (doxycycline-induced shRNA knockdown) 0.0447 | 8.3 µM, library screen: screen3, EWS-FLI1 expression: high (no doxycycline) 0.0137 | 8.3 µM, library screen: screen3, EWS-FLI1 expression: low (doxycycline-induced shRNA knockdown) 0.0661 | 25 µM, library screen: screen3, EWS-FLI1 expression: high (no doxycycline) -0.0678 | 25 µM, library screen: screen3, EWS-FLI1 expression: low (doxycycline-induced shRNA knockdown) 0.113

COc1ccc(OC)c(C(O)C(C)N)c1 (centres undefined)
inactive: [5] 0.185 | [6] 0.0992 | [1] 0.0166 | [2] -0.00492 | [7] 0.162 | [8] 0.105 | [3] 0.134 | [4] 0.0886 | [9] 0.162 | [10] 0.0903 | [11] 0.141 | [12] 0.0948

C[C@H]1CC[C@]2(NC1)O[C@H]1C[C@H]3[C@@H]4CC[C@H]5C[C@@H](O[C@@H]6O[C@H](CO)[C@H](O[C@@H]7O[C@H](CO)[C@@H](O)[C@H](O[C@@H]8OC[C@@H](O)[C@H](O)[C@H]8O)[C@H]7O[C@@H]7O[C@H](CO)[C@@H](O)[C@H](O)[C@H]7O)[C@H](O)[C@H]6O)CC[C@]5(C)[C@H]4CC[C@]3(C)[C@H]1[C@@H]2C
active: [3] -1.17 | [4] -1.98

COc1cc2c(cc1O)C[C@H]1c3c(cc(O)c(OC)c3-2)CCN1C
inactive: [1] 0.0548 | [2] 0.0293 | [3] 0.166 | [4] 0.173

CCOC(=O)NC1=C(N2CC2)C(=O)C(NC(=O)OCC)=C(N2CC2)C1=O
inactive: [5] -0.0137 | [6] -0.0126 | [1] 0.102 | [2] 0.0213 | [7] 0.153 | [8] -0.00616 | [3] 0.0672 | [4] 0.107 | [9] -0.0475 | [10] 0.0995
active: [11] -3.5 | [12] -0.288

CC(O)C(C)OC(=O)[C@@H]1C[C@@H]2c3cccc4c3c(cn4C(C)C)C[C@H]2N(C)C1 (some centres undefined)
inactive: [7] 0.174 | [8] 0.171 | [9] 0.12 | [10] 0.112

c1ccc2sc(C3(N4CCCCC4)CCCCC3)cc2c1
inactive: [7] 0.21 | [8] 0.0848 | [9] 0.113 | [10] 0.152

C[N+]1(C)C2CCC1CC(OC(=O)c1c[nH]c3ccccc13)C2 (centres undefined)
inactive: [7] 0.0789 | [8] 0.116 | [9] 0.126 | [10] 0.165

Clc1ccc(C(c2ccc(Cl)cc2)C(Cl)(Cl)Cl)cc1
inactive: [1] 0.0479 | [2] 0.0234 | [3] 0.0726 | [4] 0.147

C[N+]1(C)CCCC(OC(=O)C(O)(c2ccccc2)c2ccccc2)C1 (centres undefined)
inactive: [1] 0.0362 | [2] 0.021 | [3] 0.103 | [4] 0.00347

NC1CCc2cc(O)c(O)cc2C1 (centres undefined)
inactive: [7] 0.279 | [8] 0.127 | [9] 0.204 | [10] 0.136

C[C@]12CCC(=O)C=C1CC[C@@H]1[C@@H]2CC[C@]2(C)C(=O)CC[C@@H]12
inactive: [7] 0.112 | [8] 0.107 | [9] 0.0682 | [10] 0.136

COc1cccc(CN2CCN(Cc3ccccc3OC)CC2)c1
inactive: [1] 0.108 | [2] 0.0202 | [3] 0.149 | [4] -0.0141

C=CCN1CC[C@@]2(C)c3cc(O)ccc3CC1[C@@H]2C
inactive: [7] 0.194 | [8] 0.135 | [9] 0.028 | [10] 0.047

CCCC[N+]1(C)C2CC(OC(=O)C(CO)c3ccccc3)CC1C1OC12 (centres undefined)
inactive: [7] 0.152 | [8] 0.0245 | [9] 0.152 | [10] 0.054

Oc1ccc(Cl)cc1Cc1cc(Cl)ccc1O
inactive: [1] 0.0717 | [2] 0.203 | [3] 0.162 | [4] 0.181

CCCCC/C=C\C/C=C\C/C=C\C/C=C\CCCC(=O)NCC(=O)O
inactive: [7] 0.154 | [8] 0.137 | [9] 0.147 | [10] 0.135

CCCC(C)(COC(N)=O)COC(=O)NC(C)C (centres undefined)
active: [9] -0.0715

CCCC1CCCCN1 (centres undefined)
inactive: [1] 0.115 | [2] 0.153 | [3] 0.172 | [4] 0.128
